Read counts are not given, so values of variants with three or more changes are uncertain.
B1: LINE1-mini (parent)
chain: GGCAGAGCUCAACACAGCGUGGCAAAGUGGCUGUGGCUAGACUGCC

Variants of: B1
Assay: self-cleavage, relative activity (ratio to wild type); higher = more cleavage; in vitro, sequencing; the parent is a self-cleaving ribozyme

| Variant | self-cleavage |
| --- | --- |
| C13U C42A G44U | 0.02 |
| C13U C42U C46G | 0.06 |
| C13U C45A C46G | 0.08 |
| C13U G17A C31U G33C | 0.09 |
| C13U G17A G19A A24C U43A C46A | 0.01 |
| C13U G17A G19A U28A C42U | 0.15 |
| C13U G17A G19U G33U | 0.05 |
| C13U G17A G22U G44U | 0.04 |
| C13U G17A U28C | 0.15 |
| C13U G17C C23A G36A | 0.21 |
| C13U G17C C23G A26C | 0.03 |
| C13U G17C G35C C45G | 0.01 |
| C13U G17C G35U | 0.49 |
| C13U G17C G40C | 0.05 |
| C13U G17C G44U | 0.1 |
| C13U G17U C18A G33A A41C C42U | 0.06 |
| C13U G17U C37U | 0.03 |
| C13U G17U G19A | 0.07 |
| C13U G17U G27C C42G U43G | 0.01 |
| C13U G17U G30A C42U C46U | 0.16 |
| C13U G17U G30A G36C | 0.09 |
| C13U G19A C31A U38G | 0.01 |
| C13U G19A U28C | 0.08 |
| C13U G19C G27A C31A | 0.06 |

| Variant | self-cleavage |
| --- | --- |
| C13U G19C G27C G40U G44U | 0.05 |
| C13U G19C U34C U38C C45G | 0.09 |
| C13U G19U C23G G36A | 0.13 |
| C13U G19U G36A C45U | 0.05 |
| C13U G21A C23U | 0.41 |
| C13U G21A C46G | 0.07 |
| C13U G21A G29U C37G | 0.01 |
| C13U G21A G33U | 0.04 |
| C13U G21A U34C C42U G44U | 0.52 |
| C13U G21C A24G A26G G35A U38G | 0.01 |
| C13U G21C A24G C45U | 0.07 |
| C13U G21C A24U A25G G36A | 0.16 |
| C13U G21C A41C | 0.05 |
| C13U G21C U28A G29U | 0.03 |
| C13U G21U A25G | 0.13 |
| C13U G21U A25U C31G G44C | 0.06 |
| C13U G21U G30A A41G | 0.31 |
| C13U G21U G30C | 0.08 |
| C13U G21U G40U | 0.03 |
| C13U G21U G44U C45A | 0.04 |
| C13U G22A A26G G30U G33U U38G | 0 |
| C13U G22A C42G C46U | 0.04 |
| C13U G22A G30C C31A G44U | 0.03 |
| C13U G22C A24U U28G | 0.04 |

| Variant | self-cleavage |
| --- | --- |
| C13U G22C A39C | 0.02 |
| C13U G22C A41G | 0.12 |
| C13U G22C C23U G35C C45U | 0 |
| C13U G22C C46U | 0.01 |
| C13U G22C G40A C45A | 0.05 |
| C13U G22U A25U G36U | 0.07 |
| C13U G22U C23U A24C C46A | 0.36 |
| C13U G22U C31A A41U G44A | 0.05 |
| C13U G22U C31U G35A G44U | 0.03 |
| C13U G22U G35C C45A | 0.1 |
| C13U G27A U34A C42A | 0.07 |
| C13U G27C G40C C42U | 0.15 |
| C13U G27C U28C U38G A41C | 0.01 |
| C13U G27U C37G | 0.03 |
| C13U G27U C45U | 0.09 |
| C13U G27U C46U | 0.18 |
| C13U G27U U34A | 0 |
| C13U G29A G44A | 0.07 |
| C13U G29C G30U | 0.14 |
| C13U G29C U34A | 0.02 |
| C13U G29C U34G C46U | 0.01 |
| C13U G30A A39U | 0.74 |
| C13U G30A G40C | 0.01 |
| C13U G30A G40U | 0.15 |

| Variant | self-cleavage |
| --- | --- |
| C13U G30A U32A | 0.29 |
| C13U G30C A39U | 0.08 |
| C13U G30C G36C C46U | 0.12 |
| C13U G30C U38G | 0.01 |
| C13U G30U C31A | 0.09 |
| C13U G30U C37G G40C | 0.07 |
| C13U G30U C42U | 0.02 |
| C13U G30U G44C C45A | 0.06 |
| C13U G30U U34G | 0.05 |
| C13U G33A A41U | 0.24 |
| C13U G33A C37A U38C G40U | 0.02 |
| C13U G33A C45A | 0 |
| C13U G33A G35U G36U | 0.01 |
| C13U G33A U43C G44C | 0.07 |
| C13U G33C A39G | 0.04 |
| C13U G33C C37U C45G | 0.02 |
| C13U G33C G44U | 0.03 |
| C13U G33U G40U | 0.05 |
| C13U G35A G44U | 0.03 |
| C13U G35C C37A C42A | 0.08 |
| C13U G35C G40U | 1.26 |
| C13U G35U C45G | 0.2 |
| C13U G35U G40A | 0.11 |
| C13U G36A A41C | 0.12 |

| Variant | self-cleavage |
| --- | --- |
| C13U G36C C42U C46U | 0.15 |
| C13U G36C G44A | 0.15 |
| C13U G40C U43C | 0 |
| C13U G40U U43A | 0.11 |
| C13U U20A A26U G30A | 0.09 |
| C13U U20A C45G | 0.25 |
| C13U U20A C45U | 0.02 |
| C13U U20A G22A C31A A39G U43G | 0.05 |
| C13U U20A G30A U38G | 0 |
| C13U U20A U28C U32G C37A A41G U43A | 0.01 |
| C13U U20C C31G C46A | 0.01 |
| C13U U20C C37G G40A | 0.01 |
| C13U U20C G22A | 0.02 |
| C13U U20C G40U C45G | 0.05 |
| C13U U20G C23G G30U | 0.04 |
| C13U U20G C46A | 0.04 |
| C13U U20G G29U G33U G35A | 0.07 |
| C13U U28C C31U | 0.01 |
| C13U U28C G40A C42G | 0.26 |
| C13U U28C U34G | 0.01 |
| C13U U28G G30C | 0.05 |
| C13U U28G G36U G40U C42G | 0.01 |
| C13U U32A C42U | 0.04 |
| C13U U32A C45A | 0.02 |

| Variant | self-cleavage |
| --- | --- |
| C13U U32C U34G | 0.05 |
| C13U U32G G36U | 0.12 |
| C13U U32G U34A | 0.02 |
| C13U U34A C37U | 0.01 |
| C13U U34C G36U | 0.11 |
| C13U U34C U38A | 0.04 |
| C13U U34G C37A C46U | 0.02 |
| C13U U34G G35U G44U | 0.05 |
| C13U U38A G40U | 0.08 |
| C13U U38C A41C | 0.03 |
| C13U U38C A41G U43G C46U | 0.1 |
| C13U U38C C42U G44U | 0 |
| A14C A16C C18G U28C G44U | 0.02 |
| A14C A16C C18G U38C A41G | 0.04 |
| A14C A16C G17C C23U U32G | 0 |
| A14C A16C G29C G30C U32C U34A | 0 |
| A14C A16G A26U U32G G44A | 0.05 |
| A14C A16G G17C U20A U32A U38C | 0.02 |
| A14C A16G U34G | 0.16 |
| A14C A16U C46U | 0.01 |
| A14C A16U G17U A24C | 0.21 |
| A14C A16U G22C A26C C46G | 0.01 |
| A14C A16U G29A | 0.21 |
| A14C A24C C31U | 0 |

| Variant | self-cleavage |
| --- | --- |
| A14C A24C G30A G35C A41G | 0.03 |
| A14C A24U A25C C31G U38C C45G | 0.01 |
| A14C A24U A25U U43C | 0.03 |
| A14C A25C A26C C42A | 0.04 |
| A14C A25C G27A | 0.07 |
| A14C A25G C37G | 0.41 |
| A14C A25U G27A C31A | 0.16 |
| A14C A25U G27U C37A | 0.04 |
| A14C A25U U38C A41G | 0.08 |
| A14C A26C G36A C46A | 0.15 |
| A14C A26G G44C | 0.01 |
| A14C A39G C46A | 0.02 |
| A14C A39G G44U | 0.07 |
| A14C C15A A16G | 0.04 |
| A14C C15A C18A | 0.06 |
| A14C C15A G22A G29U C42U | 0.04 |
| A14C C15A U20C C23U G36A | 0.05 |
| A14C C15G A16U C18A | 0.08 |
| A14C C15G A25U G27U C31G G44U | 0 |
| A14C C15G G36C C42U | 0 |
| A14C C15U G17A C23U | 0.06 |
| A14C C15U G29A G35C G40U C42U | 0.02 |
| A14C C15U U28C | 0.08 |
